In PMC8600046 one finds binding data, which are given here for two molecules.

Chains of the proteins cited; added tags and fusions are not shown.
UniProt P51648: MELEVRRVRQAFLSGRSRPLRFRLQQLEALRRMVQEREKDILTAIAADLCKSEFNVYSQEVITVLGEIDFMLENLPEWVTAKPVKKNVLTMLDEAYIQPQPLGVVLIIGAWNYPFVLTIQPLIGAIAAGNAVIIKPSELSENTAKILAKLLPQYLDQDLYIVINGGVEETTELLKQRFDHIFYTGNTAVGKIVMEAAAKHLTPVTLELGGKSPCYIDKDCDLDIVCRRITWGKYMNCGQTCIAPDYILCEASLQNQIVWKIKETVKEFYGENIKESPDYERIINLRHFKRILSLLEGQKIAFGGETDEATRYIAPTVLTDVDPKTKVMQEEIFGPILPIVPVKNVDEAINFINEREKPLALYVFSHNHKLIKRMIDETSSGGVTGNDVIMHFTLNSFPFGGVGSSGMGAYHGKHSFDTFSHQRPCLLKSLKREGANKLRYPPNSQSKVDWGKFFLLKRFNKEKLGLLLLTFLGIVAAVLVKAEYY
UniProt Q9Y3D6: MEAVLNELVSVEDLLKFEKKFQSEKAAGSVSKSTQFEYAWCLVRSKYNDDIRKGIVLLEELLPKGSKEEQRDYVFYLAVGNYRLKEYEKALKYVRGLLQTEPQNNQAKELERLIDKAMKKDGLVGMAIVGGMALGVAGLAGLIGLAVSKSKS
UniProt Q92968: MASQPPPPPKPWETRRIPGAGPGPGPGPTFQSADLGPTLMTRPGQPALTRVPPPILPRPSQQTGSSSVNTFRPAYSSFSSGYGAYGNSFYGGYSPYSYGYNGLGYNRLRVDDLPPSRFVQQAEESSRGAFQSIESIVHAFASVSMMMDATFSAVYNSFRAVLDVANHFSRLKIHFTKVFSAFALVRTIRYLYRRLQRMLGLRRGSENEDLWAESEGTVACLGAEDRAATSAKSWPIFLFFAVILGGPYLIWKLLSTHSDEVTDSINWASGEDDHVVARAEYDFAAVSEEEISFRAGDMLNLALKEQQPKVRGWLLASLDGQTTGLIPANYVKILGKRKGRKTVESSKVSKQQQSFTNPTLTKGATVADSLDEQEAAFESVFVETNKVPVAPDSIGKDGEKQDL
UniProt O75381: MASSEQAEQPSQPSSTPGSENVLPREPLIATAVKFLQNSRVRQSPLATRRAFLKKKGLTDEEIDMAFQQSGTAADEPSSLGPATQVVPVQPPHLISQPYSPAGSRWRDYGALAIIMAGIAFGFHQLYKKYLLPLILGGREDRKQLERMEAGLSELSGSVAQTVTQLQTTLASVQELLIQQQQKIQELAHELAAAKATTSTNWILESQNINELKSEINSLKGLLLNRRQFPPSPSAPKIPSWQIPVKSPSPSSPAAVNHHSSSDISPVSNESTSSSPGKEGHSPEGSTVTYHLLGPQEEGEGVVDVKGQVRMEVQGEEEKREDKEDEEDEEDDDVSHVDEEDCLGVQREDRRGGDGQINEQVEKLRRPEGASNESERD

Numbering of substitutions follows the chain as printed. No constants are given. Whether binding was seen depends on the method and setting. Binding seen in cells or lysates may run through a third protein. Some entries that bind do so weakly or less than the wild type.

Among the targets are ALDH3A2 (UniProt P51648); FIS1 (UniProt Q9Y3D6); PEX13 (UniProt Q92968); PEX14 (UniProt O75381).
Holding throughout (assay): FRET or BRET; BRET in living HEK293 cells co-transfected with Rluc (donor) and YFP (acceptor) fusions, acceptor to donor ratio 3:1; read 48 h later with coelenterazine 30 μM; all eight combinations of N- or C-terminal fusions tested in duplicates; interaction assumed if at least one combination gave a BRET ratio above the threshold of 0.094
Another test concerns the target T1, ACBD5 (UniProt Q5T8D3).
T1 sequence: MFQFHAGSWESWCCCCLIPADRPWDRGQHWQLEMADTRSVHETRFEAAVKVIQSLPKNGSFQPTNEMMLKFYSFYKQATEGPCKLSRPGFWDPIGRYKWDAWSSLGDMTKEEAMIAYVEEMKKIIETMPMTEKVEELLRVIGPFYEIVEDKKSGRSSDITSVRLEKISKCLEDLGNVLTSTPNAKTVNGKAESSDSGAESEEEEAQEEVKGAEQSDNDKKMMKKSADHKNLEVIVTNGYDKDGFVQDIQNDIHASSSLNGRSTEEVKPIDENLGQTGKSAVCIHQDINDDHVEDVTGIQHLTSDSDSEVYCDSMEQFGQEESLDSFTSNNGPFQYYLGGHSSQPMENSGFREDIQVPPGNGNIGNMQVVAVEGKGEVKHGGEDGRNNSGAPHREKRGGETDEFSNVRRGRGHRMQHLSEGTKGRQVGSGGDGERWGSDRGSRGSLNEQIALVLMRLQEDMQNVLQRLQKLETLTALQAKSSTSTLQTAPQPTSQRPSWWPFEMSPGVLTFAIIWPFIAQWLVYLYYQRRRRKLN

A further test addresses T2, ECH1 (UniProt Q13011).
T2 sequence: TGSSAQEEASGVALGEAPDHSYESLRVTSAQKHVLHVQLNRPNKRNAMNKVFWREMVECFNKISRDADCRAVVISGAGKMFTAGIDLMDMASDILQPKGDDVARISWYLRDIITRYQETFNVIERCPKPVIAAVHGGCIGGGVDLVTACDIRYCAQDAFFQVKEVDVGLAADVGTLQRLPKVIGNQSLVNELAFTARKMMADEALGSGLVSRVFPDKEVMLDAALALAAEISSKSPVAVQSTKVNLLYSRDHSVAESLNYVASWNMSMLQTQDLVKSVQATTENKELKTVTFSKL

A further test addresses T3, PEX11B (UniProt O96011).
T3 sequence: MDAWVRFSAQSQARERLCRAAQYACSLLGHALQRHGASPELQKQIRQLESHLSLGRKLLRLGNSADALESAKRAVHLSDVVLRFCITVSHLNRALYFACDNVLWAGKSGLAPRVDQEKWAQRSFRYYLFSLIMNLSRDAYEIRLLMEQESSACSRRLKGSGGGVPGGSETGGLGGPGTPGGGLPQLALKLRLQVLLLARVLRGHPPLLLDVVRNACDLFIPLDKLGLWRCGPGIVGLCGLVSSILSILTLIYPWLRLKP

For a further test, the target named is T4, PEX11G (UniProt Q96HA9).
T4 sequence: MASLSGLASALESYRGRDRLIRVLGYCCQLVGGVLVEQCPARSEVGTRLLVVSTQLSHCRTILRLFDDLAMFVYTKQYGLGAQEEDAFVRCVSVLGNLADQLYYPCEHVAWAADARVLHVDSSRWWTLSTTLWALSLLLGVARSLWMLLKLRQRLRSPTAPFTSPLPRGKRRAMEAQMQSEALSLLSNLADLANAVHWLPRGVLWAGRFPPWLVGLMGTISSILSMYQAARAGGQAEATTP

The target in another test is T5, PXMP2 (UniProt Q9NR77).
T5 sequence: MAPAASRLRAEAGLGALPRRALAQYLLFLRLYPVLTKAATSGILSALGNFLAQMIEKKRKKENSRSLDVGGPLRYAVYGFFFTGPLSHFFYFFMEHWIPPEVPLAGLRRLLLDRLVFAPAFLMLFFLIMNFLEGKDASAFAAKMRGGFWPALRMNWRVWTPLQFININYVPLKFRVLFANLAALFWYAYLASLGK

B1: PEX26 p.Pro117Leu (protein, UniProt Q7Z412-1 1-305)
chain: MKSDSSTSAAPLRGLGGPLRSSEPVRAVPARAPAVDLLEEAADLLVVHLDFRAALETCERAWQSLANHAVAEEPAGTSLEVKCSLCVVGIQALAEMDRWQEVLSWVLQYYQVPEKLLPKVLELCILLYSKMQEPGAVLDVVGAWLQDPANQNLPEYGALAEFHVQRVLLPLGCLSEAEELVVGSAAFGEERRLDVLQAIHTARQQQKQEHSGSEEAQKPNLEGSVSHKFLSLPMLVRQLWDSAVSHFFSLPFKKSLLAALILCLLVVRFDPASPSSLHFLYKLAQLFRWIRKAAFSRLYQLRIRD
With B1, the binding result was “no binding” in the test with ACBD5; “binds” in the test with ALDH3A2; “binds” with ECH1; “binds” with FIS1; “no binding” in the test with PEX11B; “no binding” with PEX11G. The results for the binding result with PEX13, in the test with PEX14 and with PXMP2 were “no binding”, “binds” and “binds”, respectively.

B2: PEX26 p.Leu153Val (protein, UniProt Q7Z412-1 1-305)
chain: B1 chain with L117P, L153V
Regarding B2, the binding entry is reported as “no binding” in the test with ACBD5; “binds” with ALDH3A2; “binds” in the test with ECH1; “binds” in the test with FIS1; “binds” with PEX11B; “binds” in the test with PEX11G. Besides, the binding result with PEX13, in the test with PEX14 and in the test with PXMP2 was “binds” throughout.
